Assay results as given in the supplement of paper PMC10126150.
Sequences with one replicate were seen in a single cluster, so their values are uncertain.

Test system: ATP
Assay: switch fluorescence ratio, 500 uM ATP over buffer (Cy3 cluster intensity, sum of 5 cycles each) (fold (ratio)); higher = stronger signal-on switching upon ATP binding; sequences stand for … in TCGTCGGCAGCGTCAGATGTGTATAAGAGACAGTTTTTTTTTTTTTTTTTTTTTTTTT…TC
Settings: aptamer strand: ATP DNA aptamer (quencher-CACCTGGGGGAGTATTGCGGAGGAAGG + anchor), 100 nM annealed; ATP concentration: 500 uM; one replicate
Outline: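 Clusters carrying Cy3-labelled switching strands on a modified Illumina MiSeq flow-cell were annealed to 100 nM quencher-labelled ATP aptamer and imaged in selection buffer. They were imaged again after 15 min with 500 uM ATP at 22 °C, over five buffer/ATP cycles with NaOH stripping and re-annealing in between. For each cluster, the fluorescence ratio is the summed Cy3 intensity of the target cycles divided by that of the buffer cycles, averaged per switch-domain sequence. Clusters outside 100-1000 RFU were left out.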
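Note: ATP exposure 15 min at 22 °C before imaging.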

Sequence	switch fluorescence ratio
CGCTACACGT	1.05
CGCTCCAGAT	1.08
CGCTCTTGA	0.99
CGCTGAGTAA	1.08
CGCTGCTTGT	0.997
CGCTGGTAGT	1
CGCTGTAT	1.03
CGCTTACTGG	1.25
CGCTTAGGGG	1.01
CGCTTCTGTT	1
CGCTTGCTTT	1.01
CGCTTGTTCT	1
CGCTTTTTGT	0.92
CGGAAAGTG	0.99
CGGAACTTGG	0.987
CGGACACGGC	0.945
CGGACAGTCA	1.07
CGGACAGTTG	1.01
CGGACATGAG	1
CGGACCCATT	1
CGGACCCCAG	1.17
CGGACCTCCA	1.07
CGGACGCTG	1.03
CGGACTGAGG	0.96
CGGAGATGCT	1.04
CGGAGGCCGG	1.11

Sequence	switch fluorescence ratio
CGGAGGTGG	1.42
CGGAGTGTGG	0.965
CGGAGTTAG	1.07
CGGATAACTC	1.11
CGGATACCGC	1.03
CGGATAGGAC	1.05
CGGATCAAAA	0.973
CGGATCCG	0.973
CGGATGAGAA	0.969
CGGATGAGCC	0.999
CGGATGCCCT	0.965
CGGATGCTCC	1.08
CGGATGGAAG	0.985
CGGATGTGCC	0.993
CGGATTCCG	0.989
CGGATTTCGG	1
CGGCACAATC	2.93
CGGCACCAGT	1.01
CGGCACGGAG	1
CGGCACTGGG	0.993
CGGCAGAAGT	1.04
CGGCAGCGTC	1.04
CGGCAGGACT	1.34
CGGCAGGGAG	1.06
CGGCCACAGT	1.04
CGGCCATATG	1.02

Sequence	switch fluorescence ratio
CGGCCGGTTA	1.04
CGGCCGTCAT	1
CGGCCGTGCT	0.971
CGGCCTAGA	0.969
CGGCCTTTCT	1.01
CGGCGGTCGA	0.974
CGGCGTGACA	0.981
CGGCGTTAAA	0.984
CGGCGTTGAA	0.986
CGGCTAGTAC	3.56
CGGCTCAATG	1.01
CGGCTCATTC	1.05
CGGCTCCGGA	1.03
CGGCTCTTGA	0.961
CGGCTGAAG	0.965
CGGCTGACAA	1.1
CGGCTGGAGA	0.991
CGGCTGGTGC	1.05
CGGGAAGGGT	0.966
CGGGAATGTT	1
CGGGACAGAT	0.986
CGGGACCCCT	0.997
CGGGACTCAG	0.994
CGGGAGTGTT	0.977
CGGGAGTTGG	1.03
CGGGATACGT	1.15

Sequence	switch fluorescence ratio
CGGGATGGTA	1.02
CGGGATGTAA	1
CGGGATTGGA	0.991
CGGGCAAGAT	2.06
CGGGCACGGA	1.03
CGGGCACGGC	1.02
CGGGCAGTGG	1.02
CGGGCATACA	1.11
CGGGCCCAGG	2.12
CGGGCGAGTC	0.986
CGGGCGCCTA	1.03
CGGGGAAGG	1.05
CGGGGACCGG	0.993
CGGGGAG	1
CGGGGAGTTC	0.977
CGGGGATAAA	0.98
CGGGGCAAGT	1.07
CGGGGCCGCG	1.03
CGGGGCGGAG	1.02
CGGGGCTGGG	0.981
CGGGGGAAT	0.996
CGGGGGTGAT	1.08
CGGGGTACAG	1.01
CGGGGTCACG	0.97
CGGGGTGACG	1.24
CGGGGTGGAA	1

Sequence	switch fluorescence ratio
CGGGGTTAAT	1.02
CGGGGTTCAG	1.01
CGGGTAACCA	1.05
CGGGTACAGT	0.98
CGGGTAGACC	1.04
CGGGTAGAGG	1
CGGGTAGTGA	1.09
CGGGTCCACG	1
CGGGTCCCAT	0.996
CGGGTCTTTA	1
CGGGTGACCT	1.03
CGGGTGGATC	1.01
CGGGTGGGCG	1.06
CGGGTGTAAT	1.04
CGGTAAACAA	0.984
CGGTAAACCT	2.38
CGGTAATATT	1.1
CGGTACATTT	1.03
CGGTACTGAG	1.03
CGGTAGCGTT	0.996
CGGTATAACC	1.02
CGGTATGAAA	0.949
CGGTATGGA	0.996
CGGTATGGGC	0.978
CGGTATTTTG	1.05
CGGTCAGGTG	3.02

Sequence	switch fluorescence ratio
CGGTCCATCT	0.974
CGGTCCATTA	0.912
CGGTCCTGC	1.05
CGGTCGCAAT	3.83
CGGTCTAAGG	0.972
CGGTCTGGCA	1
CGGTCTGGCT	0.999
CGGTGAAAAG	1.01
CGGTGAGAGA	0.978
CGGTGATCCG	0.986
CGGTGATGTT	1
CGGTGCAAAC	4.08
CGGTGCACCC	0.985
CGGTGCCCCA	0.954
CGGTGCCGAC	1.03
CGGTGCGCCT	1.02
CGGTGGAGGA	1
CGGTGGATAC	1.29
CGGTGGCCAG	0.987
CGGTGTCGC	1.05
CGGTTAAGCC	0.95
CGGTTAATGG	0.979
CGGTTAGCGC	0.956
CGGTTCCGTC	1.03
CGGTTCTAGT	1.03
CGGTTCTTAA	0.968

Sequence	switch fluorescence ratio
CGGTTGTTCC	0.979
CGGTTTCGGA	0.998
CGGTTTGCCC	0.952
CGGTTTGGTC	1.01
CGGTTTGTTG	1
CGGTTTTTCC	0.995
CGTAAAGGCA	0.946
CGTAACGGAA	1.01
CGTAACTTAT	1.01
CGTAAGTTAC	1.31
CGTAAGTTTA	1.04
CGTAATCTTT	1.04
CGTAATGCAT	1.02
CGTAATGTAC	1.75
CGTAATTCGA	1.08
CGTACAAAAC	1.26
CGTACCGCTA	2.49
CGTACGATAC	2.21
CGTAGACAAT	1.43
CGTAGATGCA	0.974
CGTAGCCGGT	1.05
CGTAGCGCCC	1.34
CGTAGCTGGG	1.13
CGTAGGCTCA	1.01
CGTAGGCTGT	0.956
CGTAGGGACG	1.12

Sequence	switch fluorescence ratio
CGTAGTGAAC	1.81
CGTATAGATT	0.961
CGTATAGCAG	0.973
CGTATGAGAT	0.987
CGTATGATCA	1.01
CGTATGGCC	1.11
CGTATGGTCC	1.03
CGTATGTATC	0.952
CGTATTCCGT	1.01
CGTATTGTGA	0.983
CGTCAATCCA	1.09
CGTCACCTGT	1
CGTCCATGCG	0.986
CGTCCCGCGG	1.21
CGTCCGTCAG	2.03
CGTCCTCCCT	1.15
CGTCGACGAA	0.946
CGTCGAGTTA	1.01
CGTCGCTAAA	1.14
